Data taken from patent US20230398151A1 (published 2023).

What was measured:
human CD16b = target: T1, human CD16b (human, UniProt O75015 17-200); experiment: flow cytometry on CHO cells stably expressing CD16b; detection with biotinylated anti-human tissue factor and PE streptavidin
T1 construct: whole, on cells; also called CHO cells expressing human CD16b

[1] = target: IL-2Rβ and common γ chain on 32Dβ cells; experiment: cell-based or functional assay

human CD16b, sequence (O75015 17-200): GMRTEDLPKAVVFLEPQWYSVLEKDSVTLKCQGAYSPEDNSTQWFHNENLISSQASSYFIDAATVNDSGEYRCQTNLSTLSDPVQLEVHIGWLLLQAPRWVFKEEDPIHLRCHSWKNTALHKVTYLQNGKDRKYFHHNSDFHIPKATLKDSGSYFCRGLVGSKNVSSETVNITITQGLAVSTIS

Row | Binder | binding result (human CD16b) | EC50 of 32Dβ cell proliferation (WST1) [1]
1 | 18t15-12s (IL-18/TF/IL-15:IL-12/IL-15RαSu protein complex) (other, Secreted from CHO-K1 cells; used as negative control on CD16b cells; also called 18t15-12s complex) chain 1: not shown chain 2: IWELKKDVYVVELDWYPDAPGEMVVLTCDTPEEDGITWTLDQSSEVLGSGKTLTIQVKEFGDAGQYTCHKGGEVLSHSLLLLHKKEDGIWSTDILKDQKEPKNKTFLRCEAKNYSGRFTCWWLTTISTDLTFSVKSSRGSSDPQGVTCGAATLSAERVRGDNKEYEYSVECQEDSACPAAEESLPIEVMVDAVHKLKYENYTSSFFIRDIIKPDPPKNLQLKPLKNSRQVEVSWEYPDTWSTPHSYFSLTFCVQVQGKSKREKKDRVFTDKTSATVICRKNASISVRAQDRYYSSSWSEWASVPCSGGGGSGGGGSGGGGSRNLPVATPDPGMFPCLHHSQNLLRAVSNMLQKARQTLEFYPCTSEEIDHEDITKDKTSTVEACLPLELTKNESCLNSRETSFITNGSCLASRKTSFMMALCLSSIYEDLKMYQVEFKTMNAKLLMDPKRQIFLDQNMLAVIDELMQALNFNSETVPQKSSLEEPDFYKTKIKLCILLHAFRIRAVTIDRVMSYLNASITCPPPMSVEHADIWVKSYSLYSRERYICNSGFKRKAGTSSLTECVLNKATNVAHWTTPSLKCIR | no binding (tested: 1.2 µg/mL) | –
2 | TGFRt15-16s21 (TGFR/TF/IL-15:CD16scFv/IL-15RαSu/IL-21 protein complex) (other) chain 1: IPPHVQKSVNNDMIVTDNNGAVKFPQLCKFCDVRFSTCDNQKSCMSNCSITSICEKPQEVCVAVWRKNDENITLETVCHDPKLPYHDFILEDAASPKCIMKEKKKPGETFFMCSCSSDECNDNIIFSEEYNTSNPDGGGGSGGGGSGGGGSIPPHVQKSVNNDMIVTDNNGAVKFPQLCKFCDVRFSTCDNQKSCMSNCSITSICEKPQEVCVAVWRKNDENITLETVCHDPKLPYHDFILEDAASPKCIMKEKKKPGETFFMCSCSSDECNDNIIFSEEYNTSNPDSGTTNTVAAYNLTWKSTNFKTILEWEPKPVNQVYTVQISTKSGDWKSKCFYTTDTECDLTDEIVKDVKQTYLARVFSYPAGNVESTGSAGEPLYENSPEFTPYLETNLGQPTIQSFEQVGTKVNVTVEDERTLVRRNNTFLSLRDVFGKDLIYTLYYWKSSSSGKKTAKTNTNEFLIDVDKGENYCFSVQAVIPSRTVNRKSTDSPVECMGQEKGEFRE[about 120 residues left out] chain 2: not shown | – | 51.3 nM
3 | 2t2 (IL-2/TF/IL-2 single-chain chimeric polypeptide) (other) [about 150 residues left out]SGTTNTVAAYNLTWKSTNFKTILEWEPKPVNQVYTVQISTKSGDWKSKCFYTTDTECDLTDEIVKDVKQTYLARVFSYPAGNVESTGSAGEPLYENSPEFTPYLETNLGQPTIQSFEQVGTKVNVTVEDERTLVRRNNTFLSLRDVFGKDLIYTLYYWKSSSSGKKTAKTNTNEFLIDVDKGENYCFSVQAVIPSRTVNRKSTDSPVECMGQEKGEFRE[about 150 residues left out] | – | 0.158 nM
4 | 15t15 (IL-15/TF/IL-15 single-chain chimeric polypeptide) (other) [about 120 residues left out]SGTTNTVAAYNLTWKSTNFKTILEWEPKPVNQVYTVQISTKSGDWKSKCFYTTDTECDLTDEIVKDVKQTYLARVFSYPAGNVESTGSAGEPLYENSPEFTPYLETNLGQPTIQSFEQVGTKVNVTVEDERTLVRRNNTFLSLRDVFGKDLIYTLYYWKSSSSGKKTAKTNTNEFLIDVDKGENYCFSVQAVIPSRTVNRKSTDSPVECMGQEKGEFRE[about 120 residues left out] | – | 0.161 nM
5 | 7t15-TGFRs (IL-7/TF/IL-15 with TGFβ Receptor II/IL-15RαSu) (other) chain 1: not shown chain 2: IPPHVQKSVNNDMIVTDNNGAVKFPQLCKFCDVRFSTCDNQKSCMSNCSITSICEKPQEVCVAVWRKNDENITLETVCHDPKLPYHDFILEDAASPKCIMKEKKKPGETFFMCSCSSDECNDNIIFSEEYNTSNPDGGGGSGGGGSGGGGSIPPHVQKSVNNDMIVTDNNGAVKFPQLCKFCDVRFSTCDNQKSCMSNCSITSICEKPQEVCVAVWRKNDENITLETVCHDPKLPYHDFILEDAASPKCIMKEKKKPGETFFMCSCSSDECNDNIIFSEEYNTSNPDITCPPPMSVEHADIWVKSYSLYSRERYICNSGFKRKAGTSSLTECVLNKATNVAHWTTPSLKCIR | – | 126 nM
